Results from the supplement of paper PMC12217912.
The list shows a part of the results. Sequences were assembled here from the parent chain. Values near 0.05 are background.

B1: TEV protease; numbered along this chain (parent)
chain: MGESLFKGPRDYNPISSSICHLTNESDGHTTSLYGIGFGPFIITNKHLFRRNNGTLVVQSLHGVFKVKDTTTLQQHLVDGRDMIIIRMPKDFPPFPQKLKFREPQREERICLVTTNFQTKSMSSMVSDTSCTFPSGDGIFWKHWIQTKDGQCGSPLVSTRDGFIVGIHSASNFTNTNNYFTSVPKNFMELLTNQEAQQWVSGWRLNADSVLWGGHKVFMVKPEEPFQPVKEATQL

Variants of: B1
Assay: raw area under fraction-flipped curve 0-4 h after induction (AUC4h, not background-subtracted), DNA-recorder readout of cleavage of the substrate (dimensionless); higher = more cleavage of the substrate by the protease variant
Conditions: temperature: 34 °C; time window: 0-4 h after rhamnose induction
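Note: Bxb1 expression induced with 0.2% (w/v) L-rhamnose at OD600 near 0.5, cultures sampled hourly, flipped fraction per protease–substrate barcode pair counted by paired-end Illumina sequencing.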

| Variant | area with substrate EGLYFQS | area with substrate EVLYFQS | area with substrate EHLYFQS | area with substrate EILYFQS | area with substrate EKLYFQS | area with substrate EMLYFQS | area with substrate EQLYFQS | area with substrate ESLYFQS | area with substrate EYLYFQS | area with substrate EWLYFQS |
| --- | --- | --- | --- | --- | --- | --- | --- | --- | --- | --- |
| MGESLFKGPRDYNPISSSICHLTNESDGHTTSLYGIGFGPFIITNKHLFRRNNGTLVVQSLHGVFKVKDTTTLQQHLVDGRDMIIIRMPKDFPPFPQKLKFREPQREERICLVTTNFQTKSMSSMVSDTSCTFPSGDGIFWKHWIQTKDGQCGSPLVSTRDGFIVGIHSASNFTNTNNYFTSVPKNFMELLTNQEAQQWVSGWRLNADSVLWQGHKVFMVKPEEPFQPVKEATQL [G213Q] | 0.0449 | 0.0609 | – | – | – | – | – | – | – | – |
| MGESLFKGPRDYNPISSSICHLTNESDGHTTSLYGIGFGPFIITNKHLFRRNNFTLVVQSLHGVFKVKDTTTLQQHLVDGRDMIIIRMPKDFPPFPQKLKFREPQREERICLVTTNFQTKSMSSMVSDTSCTFPSGDGIFWKHWIQTKDGQCGSPLVSTRDGFIVGIHSASNFTNTNNYFTSVPKNFMELLTNQEAQQWVSGWRLNADSVLWGGHKVFMVKPEEPFQPVKEATQL [G54F] | – | 0.073 | 0.082 | 0.071 | 0.0845 | 0.0712 | 0.0942 | 0.0967 | 0.0668 | – |
| MGESLFKGPRDYNPISSSICHLTNESDGHTTSLYGIGFGPFIITNKHLFRRNNGTLVTQSLHGVFKVKDTTTLQQHLVDGRDMIIIRMPKDFPPFPQKLKFREPQREERICLVTTNFQTKSMSSMVSDTSCTFPSGDGIFWKHWIQTKDGQCGSPLVSTRDGFIVGIHSASNFTNTNNYFTSVPKNFMELLTNQEAQQWVSGWRLNADSVLWGGHKVFMVKPEEPFQPVKEATQL [V58T] | – | – | 0.118 | – | – | – | – | – | – | – |
| MGESLFKGPRDYNPISSSICHLTNESDGHTTSLYGIGFGPFIITNKHLFRRNNGTLVVQSLHGVFKVKDTTTLQQHLVDGRIMIIIRMPKDFPPFPQKLKFREPQREERICLVTTNFQTKSMSSMVSDTSCTFPSGDGIFWKHWIQTKDGQCGSPLVSTRDGFIVGIHSASNFTNTNNYFTSVPKNFMELLTNQEAQQWVSGWRLNADSVLWGGHKVFMVKPEEPFQPVKEATQL [D82I] | – | – | 0.0447 | – | – | – | – | 0.0535 | – | 0.0561 |
| MGESLFKGPRDYNPISSSICHLTNESDGHTTSLYGIGFGPFIITNKHLFRRNNGTLVVQSLHGVFKVKDTTTLQQHLVDGRDMIIIRMPKDFPPFPQKLKFRFPQREERICLVTTNFQTKSMSSMVSDTSCTFPSGDGIFWKHWIQTKDGQCGSPLVSTRDGFIVGIHSASNFTNTNNYFTSVPKNFMELLTNQEAQQWVSGWRLNADSVLWGGHKVFMVKPEEPFQPVKEATQL [E103F] | – | 0.0742 | 0.0893 | 0.132 | 0.118 | – | – | 0.105 | – | – |
| MGESLFKGPRDYNPISSSICHLTNESDGHTTSLYGIGFGPFIITNKHLFRRNNGTLVVQSLHGVFKVKDTTTLQQHLVDGRDMIIIRMPKDFPPFPQKLKFREPQREERICLVTTNFQTKSMSSMVSDTSCTFPSGDGIFWKHWILTKDGQCGSPLVSTRDGFIVGIHSASNFTNTNNYFTSVPKNFMELLTNQEAQQWVSGWRLNADSVLWGGHKVFMVKPEEPFQPVKEATQL [Q146L] | – | – | 0.0695 | 0.121 | 0.129 | – | – | 0.124 | – | – |
| MGESLFKGPRDYNPISSSICHLTNESDGHTTSLYGIGFGPFIITNKHLFRRNNGTLVVQSLHGVFKVKDTTTLQQHLVDGRDMIIIRMPKDFPPFPQKLKFREPQREERICLVTTNFQTKSMSSMVSDTSCTFPSGDGIFWKHWIQTKDGQCGSPLVSTRDGFIVGIHSATNFTNTNNYFTSVPKNFMELLTNQEAQQWVSGWRLNADSVLWGGHKVFMVKPEEPFQPVKEATQL [S171T] | – | – | 0.172 | – | 0.164 | – | – | – | – | – |
| MGESLFKGPRDYNPISSSICHLTNESDGHTTSLYGIGFGPFIITNKHLFRRNNGTLVVQSLHGVFKVKDTTTLQQHLVDGRDMIIIRMPKDFPPFPQKLKFREPQREERICLVTTNFQTKSMSSMVSDTSCTFPSGDGIFWKHWIQTKDGQCGSPLVSTRDGFIVGIHSASNFTNTNNYFTSVPKCFMELLTNQEAQQWVSGWRLNADSVLWGGHKVFMVKPEEPFQPVKEATQL [N186C] | – | – | 0.11 | – | 0.121 | – | – | 0.101 | – | – |
| MGESLFKGPRDYNPISSSICHLTNESDGHTTSLYGIGFGPFIITNKHLFRRNNGTLVVQSLHGVFKVKDTTTLQQHLVDGRDMIIIRMPKDFPPFPQKLKFREPQREERICLVTTNFQTKSMSSMVSDTSCTFPSGDGIFWKHWIQTKDGQCGSPLVSTRDGFIVGIHSASNFTNTNNYFTSVPKNFMELLTNQEAQQWVSGWRLNADSVLWGGHKVFMVKPGEPFQPVKEATQL [E223G] | – | – | 0.0952 | – | – | – | 0.131 | – | – | – |
| MGESLFKGPRDYNPISSSICHLTNESDGHTTSLYGIGFGPFIITNKHLFRRNNGTLVVQSLHGVFKVKDTTTLQQHLVDGRDMIIIRMPKDFPPFPQKLKFREPQREERICLVTTNFQTKSMSSMVSDTSCTFPSGDGIFWKHWIQTKDGQCGSPLVSTRDGFIVGIHSASNFTNTNNYFTSVPKNFMELLTNQEAQQWVSGWRLNADSVLWGGHKVFMVKPEEPFQPVKEATDL [Q234D] | – | 0.0997 | 0.109 | 0.0966 | 0.131 | 0.104 | 0.144 | 0.116 | 0.0964 | – |
| MGESLFKGPRDYNPISSSICHLTNESDGHTTSLYGIGFGPFIITNKHLFRGNNGTLVVQSLHGVFKVKDTTTLQQHLVDGRDMIIIRMPKDFPPFPQKLKFREPQREERICLVTTNFQTKSMSSMVSDTSCTFPSGDGIFWKHWIQTKDGQCGSPLVSTRDGFIVGIHSASNFTNTNNYFTSVPKNFMELLTNQEAQQWVSGWRLNADSVLWGGHKVFMVKPEEPFQPVKEATQL [R51G] | – | – | – | 0.0737 | 0.121 | – | – | 0.125 | – | – |

Same assay, conditions: temperature: 34 °C; time window: 0-4 h after rhamnose induction

| Variant | area with substrate EPLYFQS | area with substrate ERLYFQS | area with substrate ELLYFQS |
| --- | --- | --- | --- |
| MGESLFKGPRDYNPISSSICHLTNESDGHTTSLYGIGFGPFIITNKHLFRRNNGTLVVQSLHGVFKVKDTTTLQQHLVDGRDMIIIRMPKDFPPFPQKLKFRFPQREERICLVTTNFQTKSMSSMVSDTSCTFPSGDGIFWKHWIQTKDGQCGSPLVSTRDGFIVGIHSASNFTNTNNYFTSVPKNFMELLTNQEAQQWVSGWRLNADSVLWGGHKVFMVKPEEPFQPVKEATQL [E103F] | 0.0667 | – | – |
| MGESLFKGPRDYNPISSSICHLTNESDGHTTSLYGIGFGPFIITNKHLFRRNNGTLVVQSLHGVFKVKDTTTLQQHLVDGRDMIIIRMPKDFPPFPQKLKFREPQREERICLVTTNFQTKSMSSMVSDTSCTFPSGDGIFWKHWIQTKDGQCGSPLVSTRDGFIVGIHSATNFTNTNNYFTSVPKNFMELLTNQEAQQWVSGWRLNADSVLWGGHKVFMVKPEEPFQPVKEATQL [S171T] | 0.14 | – | – |
| MGESLFKGPRDYNPISSSICHLTNESDGHTTSLYGIGFGPFIITNKHLFRRNNGTLVVQSLHGVFKVKDTTTLQQHLVDGRDMIIIRMPKDFPPFPQKLKFREPQREERICLVTTNFQTKSMSSMVSDTSCTFPSGDGIFWKHWIQTKDGQCGSPLVSTRDGFIVGIHSASNFTNTNNYFTSVPKCFMELLTNQEAQQWVSGWRLNADSVLWGGHKVFMVKPEEPFQPVKEATQL [N186C] | 0.136 | 0.104 | – |
| MGESLFKGPRDYNPISSSICHLTNESDGHTTSLYGIGFGPFIITNKHLFRRNNGTLVVQSLHGVFKVKDTTTLQQHLVDGRDMIIIRMPKDFPPFPQKLKFREPQREERICLVTTNFQTKSMSSMVSDTSCTFPSGDGIFWKHWIQTKDGQCGSPLVSTRDGFIVGIHSASNFTNTNNYFTSVPKNFMELLTNQEAQQWVSGWRLNADSVLWGGHKVFMVKPEEPFQPVKEATDL [Q234D] | – | 0.118 | 0.0906 |
| MGESLFKGPRDYNPISSSICHLTNESDGHTTSLYGIGFGPFIITNKHLFRGNNGTLVVQSLHGVFKVKDTTTLQQHLVDGRDMIIIRMPKDFPPFPQKLKFREPQREERICLVTTNFQTKSMSSMVSDTSCTFPSGDGIFWKHWIQTKDGQCGSPLVSTRDGFIVGIHSASNFTNTNNYFTSVPKNFMELLTNQEAQQWVSGWRLNADSVLWGGHKVFMVKPEEPFQPVKEATQL [R51G] | 0.128 | 0.0908 | – |
